Over roughly 4,500 sequences, “median log2 fold change of GCK-ALFA target abundance (FLAG IP / Myc IP barcode read proportion)” has its median near 0.078; the lowest 2% begin near -0.6. The list shows a part of the results.
B1: GBRAP_184_5298 (protein)
chain: TVKHVTIEADTAEEAIEQILKLAEEARKAGVKLSLDLILNNVSVEGFRRIAELLKELKEEGIIEDAVIEITDDKSEEEIDEFIKIADEAGVKLVVALSDE
B2: GBRAP_52_5924 (protein)
chain: SSEELKAKAKEILEAALAGDKEKMEAKIKEIAETLSDEEIEGVIAELARLVAELGPEHYDVFAEIMDILEDAVEEAGRDVERVQAAIARGAGLLYDAEQA
B3: GBRAP_11_2831 (protein)
chain: KKEKLKRLAEKAKEVADKLEKLIESGNPTQEELDELLKLAEELLKEVKEYGDESLIKIAEIALEEIKKAKENPETQKEHLQHALAFARVLEGQFLLELEE
B4: GBRAP_80_6752 (protein)
chain: GLAELEKALAELKELDPELGERLREVLERALEAGVPVSDATRLVQALVELAKLDLEKARKLGEEFIKELEEELEAGDLEGARATIIDYTSDALLAVEELE
B5: GBRAP_184_5235 (protein)
chain: KVLEREIEAKNAEELREKLEEVAEEAEKAGAKVRLIIKVEELTKEKAEVIAEMLKKMAAKGLIDLVEVESTTKIEEENIDLLVEAADAAGVRLVLALEEE
B6: GBRAP_160_4311 (protein)
chain: SEELEELKKNLKEIVEEAKKMIEGETAEQRKTIARVTLGDILLEAFENPAISDELEDKIGEIVDAAEAELDANPDLTEEEVKELLEKTLKEILELIDKSE
B7: GBRAP_184_5355 (protein)
chain: TTRDVLIEADTVDEAIAQLRAAADEAAAAGATLNVLIRVPINTVEEARALMAAVAEAAARGVIAGVVGIDGVSNDEAIIDALLAGADAAGVRLVLALDDE
B8: GBRAP_39_5695 (protein)
chain: EKEEEAEDTFSYYEAKGVKYQVEKGLTDEEVEEETRRLAAEAKAAHPELAALIDELERLAREAGELAVIALYGLLLDLKEGKPLEEIREDLELLIAYLKS
B9: GBRAP_160_4618 (protein)
chain: MEKIEELIKYIKEEFEEAKEMIEGQTVEERAAIVDVTFGEIILKAEELEVVSDETLEKIDEIGRETVKTILENPDLTDEEIKKLIEEAEKKIIELVEKDK
B10: GBRAP_83_6878 (protein)
chain: AEEITVAGPASRGAEIADAVIDLTKEEGYTVTVEVLVTPEELADVLALARRLAAAGVNVELIVVGRGITPEQAAALEAELRAIFAAAGVDVTVEVRLEEP
B11: GBRAP_39_5653 (protein)
chain: EEEEENELIFEYLIALASKYQVDKNISEEELIAHGKELLEKMAKEHPEIKELVEKLLELMEKGDLETKEAIVGIALLYEKGEPIEKIKEYLEKFLEYVES
B12: GBRAP_14_3780 (protein)
chain: MEKIEEIIREKAEEIIELLTEIAPEKAEEITEIVEEVVERTIARIKETGNAEEAAEEGRDELLARIAELTADLPAETRARMLAVVAVEFGQAILEIEELL
B13: GBRAP_52_5892 (protein)
chain: KLEEAIKLLEEAIEAMKAGKLEEAEKILKEIVRNFDDETILEAVRELAKKILSKSLEEAEAFYKTMELLAEIWEEEGRDENIASEIEAIAGAALYTVEQK
B14: GBRAP_52_6375 (protein)
chain: AVEEAAKLLREALELIIEGGPEEEVEKLAEEIVKYSEEVIEEAAKLVAEEVLKLSPEEAEKYLEASFKLAEILEEKGLKSEIASLIEAEIGKAAYEVLQK
B15: GBRAP_35_5627 (protein)
chain: DFVEEVAEMVVATIEDAILSKEDMDPETFIDLAIKIARAALEVAKEIKDKKEEAKKILEKLKELLEAAIKLAKETGADEKKIKELEELLKEAEKLEKELK
B16: GBRAP_80_6786 (protein)
chain: MEEEIEKLIEEIEKKNPEVAKIIKEIVELLKEIGVPLEIIKEIVEVFLDALSLPKETQLKIAKEVLEEAKELSEYKDEFSPEDIGRMVLAEALTLVELAK
B17: GBRAP_78_6589 (protein)
chain: AIEEAVDEFLKKAGELMKLLSKDPSELAQDLLGELIDQVSEIEEAFTEENDKEKIKEAAEKAAKALKAALEKAEQFSPETVKAIEAALAAAEKLIKLLNE
B18: GBRAP_11_2643 (protein)
chain: KKEKLKKAAELAKKAIEALKKLLEEGVDNEELRKKIEELLEELSKLVKEYADESLKKLVEIAKELWKKSLEDPENAEEYVKNLLAALRVLSAELEEEIEE
B19: GBRAP_14_3860 (protein)
chain: VEALVKAVERTAESTKELIAEIAPEHAEEIKAKVEELAKEIIEKIKKENLNIEEVEELVDEAAEKLGAYMREKGYLSDTEIAAFKAHLLSEFLLELEEIE
B20: GBRAP_160_4137 (protein)
chain: KEEIEKLIKEIKEIGEEALEMIEGETPENAKVIARVAFGDIVMLVETSEAVSEETKDKVGKVADEAEAKLKANPDLTVEEIKALLKEATEKVIEILEKEK
B21: GBRAP_160_4138 (protein)
chain: KEELEKLIKEIRETAEEALKMIEGETPENAKVIARVALGDMVMLVESNEAVSEEVEEKVGEVARKAEEELDENPDLTVEEIKELLRRAEEEVVKIIEEEK
B22: GBRAP_80_6762 (protein)
chain: MMAELEAALAELAKLLPELAEEARATFAAALAAGVDVEDLLRLAKALVELAKLDKEKAREILTRFIERSREALAAGDLEDVRGEILDAENDALLAVEELE
B23: GBRAP_52_6321 (protein)
chain: MEEELEKKAEELHEAVLAGDEEKFIELVREIAENYSEEEVLKILKRAIELMAADPRLTDDQIADATDKAVDVLEEEGRSDEVISEVIGAAARALYERELR
B24: GBRAP_160_4393 (protein)
chain: KEEFEKLKEEVEEIFDEAEELIKGQSPEERRVIIRVAFGEIRMEVFSNEAVTDEQEEEFDELLDKYEEEAEKAVEEGEEAVLKVLEKARKELLELIEKYE
B25: GBRAP_83_6973 (protein)
chain: AEEITVVTPADRIEEAVEIAIDLAKEEGYKVTLEVITEPEQLERVLEAVRRLIAEIPDVEIEVLLRGATEEQAEALLARLRAIAAELGATPTITVHLEEP
B26: GBRAP_52_6290 (protein)
chain: SEERVEAVVDEIVALVRAGRLDEALALAREAAREFSREEVLLLGERLIERLRELPAADLDAALEVVEALAEELERIFGDEEGASYLEARAAAAAYEALQR
B27: GBRAP_128_3519 (protein)
chain: SMEEAVAQVRELMAKIKEASPEEAAKLTKEIVALIEAADRETREAMVDEFIELLPELSKEKLLTIADTLRELRPSADPYVANLLADVQVEALNEAEELEE
B28: GBRAP_78_6623 (protein)
chain: ELEELIDKAIELLGEAAKIALKLNTPLADELLGELVDAMSDLWEAEEKGGDLELLERALKHLEKALKIAEEMGNEELKKKLEKAKELVEKAIKLVKEKKE
B29: GBRAP_125_2984 (protein)
chain: SMEELLEDLRLIFKALGLSEEEAEEAVQLAREHSLRQTLYALFAALGAEEVADAVAQLTEEEAEELVRELAAYIKANPDITPEEVVKKALELAKKLLAKR

Target: GABARAP, O95166
Sequence (O95166 whole entry, the tested form may be a part): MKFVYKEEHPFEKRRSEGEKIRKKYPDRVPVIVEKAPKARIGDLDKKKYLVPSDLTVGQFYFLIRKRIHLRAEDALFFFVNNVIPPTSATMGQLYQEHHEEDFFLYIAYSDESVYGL
Assay: median log2 fold change of GCK-ALFA target abundance (FLAG IP / Myc IP barcode read proportion) (log2 ratio); each designed protein is fused to an ALFA-tag nanobody in HEK293 cells to bring the named protein to FLAG-tagged glucokinase (GCK); Myc marks an untargeted standard; higher = target protein stabilised (more abundant)
Conditions: target protein: 3xFLAG-MCP-GCK-ALFA reporter; HEK293 landing pad (RPLP)
Method in brief: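 Binders fused to an ALFA nanobody were recombined as a library into HEK293 landing-pad cells, which were induced with 2 μg mL^−1 doxycycline and then transfected to express a FLAG-tagged target and a Myc-tagged standard. After 48 h, circular RNA barcodes recovered by anti-FLAG and anti-Myc immunoprecipitation of lysates were reverse transcribed, amplified and sequenced. Each binder's target abundance is the median log2 ratio of FLAG to Myc barcode read proportions, from barcodes present at ≥10^−7 in both replicates, binders carrying ≥3 barcodes per replicate, a 10^−6 pseudocount and pooled replicates.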

| Binder | median log2 fold change |
| --- | --- |
| B1 | -0.0195 |
| B2 | 0.22 |
| B3 | 0.224 |
| B4 | 0.123 |
| B5 | -0.333 |
| B6 | -0.202 |
| B7 | -0.11 |
| B8 | 0.243 |
| B9 | 0.27 |
| B10 | 0.0866 |
| B11 | -0.308 |
| B12 | -0.0168 |
| B13 | 0.127 |
| B14 | 0.136 |
| B15 | -0.449 |
| B16 | -0.00858 |
| B17 | 0.219 |
| B18 | 0.271 |
| B19 | 0.302 |
| B20 | -0.0296 |
| B21 | -0.00496 |
| B22 | 0.223 |
| B23 | -0.00338 |
| B24 | -0.22 |
| B25 | 0.159 |
| B26 | -0.135 |
| B27 | 0.152 |
| B28 | -0.109 |
| B29 | 0.18 |

Reference: the supplement of paper PMC12632987
